According to PubChem BioAssay AID588855 (National Center for Advancing Translational Sciences (NCATS), 2011):
Several values for one entry are separate records, joined by “and”; a condition that tells them apart may be missing. Identical values can stand only once. Out of some 410,000 compounds screened, about 5,000 (1.2%) were called active. Inconclusive means that the source gave no clear call. Such entries were picked first, then a sample of the others. Calls come from the whole dose curve; as a rule, active = well fitted inhibition curve with a large enough effect; inconclusive = small, poorly fitted or top-dose-only effect; inactive = no such curve, though single readings can be large or run the other way. Potencies of inconclusive entries are doubtful fits and often do not repeat.

Assay: qHTS for Inhibitors of TGF-b; note: nearly all actives have a fitted effect of over 65% in size
Conditions: HepG2 CAGA-GFP TGF-b/SMAD3 reporter, GFP fluorescence, 18 h, TGF-beta stimulated, 500 pg/mL final; series mostly up to 46.1 µM
In short: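 GFP signal (ex488/em500-530) from TGF-beta-stimulated HEPG2 CAGA-GFP cells, 500 pg/mL final, 18 h at 37 degrees C in DMEM plus 1% FBS, normalized to unstimulated and DMSO-stimulated controls.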
Potency is the fitted concentration of half-maximal effect; tags give direction and shape of the fitted curve.

Compound | Potency
CCc1nc(C)ccc1OCC(=O)N1CCc2c([nH]c3ccccc23)C1c1ccccn1 (stereo unspecified) | inconclusive: 25.1 µM [inhibitor, single point]
CN(C)c1ccc(C=C2C=CC=C2)cc1 | inactive
COc1cc(C)c(C(C)C)cc1S(=O)(=O)n1cnc(C)c1 | inconclusive: 12.6 µM [inhibitor, partial curve, poor fit]
O=C(CSc1cccc2cccnc12)Nc1cccc(S(=O)(=O)N2CCOCC2)c1 | inactive
Cc1cccc(N2CCN(c3nc4ccccc4c4nnc(C)n34)CC2)c1C | inconclusive: 2.24 µM [inhibitor, full curve, poor fit]
CCOC(=O)c1cnc(-n2nc(C)cc2C)nc1Nc1ccc(OC)cc1 | inactive
C/C(Cc1ccccc1)=N\NC(=O)CNC(=O)/C=C\c1ccccc1 | inactive
C=CCc1ccccc1OCCSc1nc(-c2ccccc2F)nc2cc(=O)[nH]n12 | active: 17.8 µM
Cc1ccc(NC(=O)CSc2nc3ccccc3c(=O)n2CCCC(=O)NCCCN2CCOCC2)cc1 | inconclusive: 25.1 µM [inhibitor, single point]
O=S(=O)(NCC(c1ccccc1)N1CCc2ccccc21)c1ccc(Cl)cc1 (stereo unspecified) | inconclusive: 35.5 µM [inhibitor, single point]
COc1ccc(-c2ccc(C(=O)Nc3cccc(NS(C)(=O)=O)c3)c3occc23)c(C)c1 | active: 15.8 µM
CC(C)(C)c1ccc(S(=O)(=O)NC(=O)C2(C)CCN2C(=O)CC2CCCC2)cc1 (stereo unspecified) | inactive
CSc1ncc(C(=O)NCc2cccc(C)c2)c(-c2ccccc2)n1 | inactive
Cc1ccc(OCCn2c(C3CC(=O)N(Cc4ccc(F)cc4)C3)nc3ccccc32)c(C)c1 (stereo unspecified) | inconclusive: 11.2 µM [inhibitor, partial curve, poor fit]
O=C(/C=C/c1cc2ccccc2o1)c1ccccc1O | inconclusive: 35.5 µM [inhibitor, single point]
Cc1noc(-c2ccccc2OC(=O)c2ccccc2)n1 | inconclusive: 3.55 µM [inhibitor, partial curve, poor fit]
O=C1N[C@@H](Cc2c[nH]c3ccccc23)COC(=O)[C@H](Cc2ccc(F)cc2)C/C=C\C[C@H]1CC(=O)N(CCO)Cc1ccccc1 | inconclusive: 0.794 µM [inhibitor, full curve, poor fit]
Cc1cc(C([O-])=C(C(=S)Nc2ccc(F)cc2)[n+]2ccccc2)c(C)n1-c1ccc(F)cc1 | inactive
COc1ccc(OC)c(S(=O)(=O)NCCS(=O)(=O)N2CCN(c3ccccc3F)CC2)c1 | inconclusive: 17.8 µM [inhibitor, single point]
CC(C)Cc1ccc(CN2CCCC(NC(=O)CCN3CCCCC3=O)C2)cc1 (stereo unspecified) | inactive
Cc1ccc(C)c(CN2C(=O)c3ccccc3S(=O)c3ccc(C(=O)N4CCCCC4)cc32)c1 (stereo unspecified) | inconclusive: 6.31 µM [inhibitor, partial curve, poor fit]
COc1cccc(C(=O)Nc2nnc(S(=O)(=O)N3CCCc4ccccc43)s2)c1 | inconclusive: 20 µM [inhibitor, single point]

Compound | Potency
O=C1CC(c2ccc(Cl)c([N+](=O)[O-])c2)c2ccc3ccccc3c2N1 (stereo unspecified) | inconclusive: 12.6 µM [inhibitor, single point]
Cc1cccc(NC(=S)N2CCC(c3nc4ccccc4o3)CC2)c1 | inconclusive: 22.4 µM [inhibitor, single point]
CC(C)(C)C(=O)Nc1cccc(S(=O)(=O)NC2=NCCC2)c1 | inactive
COC(=O)c1cc(Nc2cc(C)c3c(O)cccc3n2)cc(C(=O)OC)c1 | inconclusive: 14.1 µM [inhibitor, single point]
CCCCNC(=S)NNC(=O)c1ccoc1C | inactive
O=c1[nH]c(C2CCCN(S(=O)(=O)c3ccccc3)C2)nc2c1nnn2Cc1ccccc1Br (stereo unspecified) | inconclusive: 14.1 µM [inhibitor, partial curve, poor fit] and inconclusive: 22.4 µM [inhibitor, single point]
O=C(NNS(=O)(=O)c1ccc(F)cc1F)C1Cc2c(ccc3ccccc23)O1 (stereo unspecified) | inactive
COC(=O)c1ccc(Cn2nc(C)c(Br)c2C)cc1 | inconclusive: 2.51 µM [inhibitor, partial curve]
COc1ccc(S(=O)(=O)Nc2cccc3c2O[C@H](CN(C)C(=O)Nc2ccc4c(c2)OCO4)[C@@H](C)CN([C@H](C)CO)C3=O)cc1 | inactive
Cc1cc(C)n2nc(SCC(=O)N3CCc4ccccc43)nc2n1 | inconclusive: 35.5 µM [inhibitor, single point]
Cc1ccc2nc(-c3ccco3)c(Cc3cccc(Cl)c3)n2c1 | inconclusive: 11.2 µM [inhibitor, partial curve, poor fit]
Cc1cccc(NC(=O)CSc2nnc(C)n2Cc2ccccc2)c1 | inconclusive: 6.31 µM [inhibitor, single point]
CCOc1ccc(NS(=O)(=O)c2c(C)nc3sc(CC)nn3c2=O)cc1 | inconclusive: 35.5 µM [inhibitor, single point]
O=[N+]([O-])c1ccc(S(=O)(=O)N2CCN(c3nc(-c4cccs4)nc4ccccc34)CC2)cc1 | inactive
CC1(c2ccc(OCC#N)cc2)C=C(c2ccc(OCC#N)cc2)n2nc(C(F)(F)F)nc2N1 (stereo unspecified) | inconclusive: 35.5 µM [inhibitor, single point]
C#CCNC(=O)C1=C[C@@H](c2cn(C(C)=O)c3ccccc23)C[C@@H](OCCCCO)O1 | inconclusive: 3.55 µM [inhibitor, partial curve, poor fit]
CCN1CCCC1CNC(=O)c1ccc2c(c1)NC(=O)/C(=C\c1ccccc1F)S2 (stereo unspecified) | inconclusive: 22.4 µM [inhibitor, single point]
O=C(NCC(c1ccc2c(c1)OCO2)N1CCN(c2ccccc2)CC1)c1ccc(F)c(F)c1 (stereo unspecified) | inconclusive: 17.8 µM [inhibitor, single point]
O=C(Nc1ccc(F)cc1F)C1CCN(C(=O)c2cnn(-c3ccccc3)c2-n2cccc2)CC1 | inconclusive: 12.6 µM [inhibitor, partial curve, poor fit]
COc1ccc(-c2csc(Nc3ccc(S(=O)(=O)Nc4cc(C)on4)cc3)n2)cc1C | inconclusive: 35.5 µM [inhibitor, single point]
CCCN[C@H]1CCc2nc(N)sc2C1 | inactive
C=CCC(CC=C)(CNC(=O)C(=O)Nc1ccc(Br)cc1)c1ccc(OC)c(OC)c1 | inactive

Compound | Potency
Clc1cccc(Nc2nc(-c3cccnc3)cs2)c1 | inconclusive: 35.5 µM [inhibitor, single point]
CCN1/C(=C\C(C)=O)Sc2ccc(OC)cc21 | inactive
CCc1ccc(OCCNC(=O)c2ccccc2SCc2ccccc2)cc1 | inconclusive: 35.5 µM [inhibitor, single point]
O=C(NCCN1CCOCC1)c1ccc2c(c1)N(Cc1ccccc1)CCS2 | inconclusive: 7.08 µM [inhibitor, partial curve]
CCOC(=O)c1sc(N(Cc2ccccc2)C(=O)CCl)nc1C | inconclusive: 11.2 µM [inhibitor, partial curve, poor fit]
O=C(CCc1ccccn1)NC1CCCc2c1cnn2-c1ccc(F)cc1F (stereo unspecified) | inconclusive: 35.5 µM [inhibitor, single point]
Cc1ccc(O)c(-c2cc(C(=O)Nc3cccnc3)[nH]n2)c1 | inactive
Cc1c(C#N)c(O)n(C)c(=O)c1N=Nc1ccc(S(N)(=O)=O)cc1 | inactive
CCc1nnc(NC(=O)CSc2nccn2Cc2ccc(Cl)cc2)s1 | inconclusive: 35.5 µM [inhibitor, single point]
COc1ccc(NC(=O)c2ccc(NC(=O)CCS(=O)(=O)c3cccs3)cc2)cc1Cl | inconclusive: 35.5 µM [inhibitor, single point]
S=C(NCc1cccs1)Nc1ccc(Br)cc1Cl | inconclusive: 22.4 µM [inhibitor, single point]
CN1C(=O)/C(=C/c2ccc(O)c([N+](=O)[O-])c2)N(C)C1=S | inactive
CCC(C)NC(=O)Cn1c(=O)n(-c2ccc(Cl)cc2)c(=O)c2c3c(sc21)CCCC3 (stereo unspecified) | inactive
Cc1ccccc1C(=O)c1cccn1CC(=O)NCc1ccc(F)cc1 | inconclusive: 17.8 µM [inhibitor, single point]
Cc1cccc(-c2nc(Nc3ccc(O)cc3)c3ccccc3n2)c1 | inconclusive: 35.5 µM [inhibitor, single point]
Cc1cc(NNC(=O)c2cccc(C(F)(F)F)c2)nc2c1c(C)nn2C | inconclusive: 7.94 µM [inhibitor, partial curve, poor fit]
C[n+]1ccc(C(c2c[nH]c3ccccc23)c2cc[n+](C)c3ccccc23)c2ccccc21 | inconclusive: 17.8 µM [inhibitor, partial curve, poor fit]
CCOc1ccc(NC(=O)N(CCN(C)C)C(C)c2ccncc2)cc1 (stereo unspecified) | inactive
CCc1cccc(NC(=O)CC(c2ccc(OC)cc2)N2Cc3ccccc3C2=O)c1 (stereo unspecified) | inactive
COc1ccc2c(c1)c(CC(=O)Nc1c(C)cccc1C)c(C)n2C(=O)c1ccc(Cl)cc1 | inactive
COc1ccc(OCC(=O)NCc2ccc3c(c2)CCN3C(=O)c2cccc(C)c2)cc1 | inconclusive: 3.98 µM [inhibitor, full curve, poor fit]
O=C(Nc1nc2cc(Cl)ccc2s1)C1CCCN(S(=O)(=O)c2cccc3cccnc23)C1 (stereo unspecified) | inconclusive: 14.1 µM [inhibitor, partial curve, poor fit]
